Assay results as given in PubChem BioAssay AID485297 (National Center for Advancing Translational Sciences (NCATS), 2010).
The campaign covered roughly 320,000 compounds. About 9,100 (2.8%) were called active. The inconclusive results got no clear call from the source; some entries with a clear call stand among them for comparison. The call rests on the fitted dose curve; in most records, active means well fitted activation curve with a large enough effect; inconclusive means small, poorly fitted or top-dose-only effect; inactive means no such curve, though single readings can be large or run the other way. No potency is given beside an inconclusive call; the fits are too rough.

experiment: qHTS Assay for Rab9 Promoter Activators; settings: Huh7 Rab9 promoter-luciferase reporter, luminescence, 24 h; series mostly up to 9.22 µM; further: nearly all actives have a fitted effect of over 60% in size
Outline: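 Cells were plated at 1500 per well in reduced-serum medium with 10% FBS and left 2 h. Compound in DMSO was then added for 24 h at 37 °C. Reporter signal was read by luminescence after 10 min with luciferase detection reagent.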
Potency means the concentration at half of the fitted maximal effect; tags describe the fitted curve by direction and shape.

Compound | Potency
CC1CCCCC1NC(=O)C1CCN(S(=O)(=O)c2cccc3nonc23)CC1 (stereo unspecified) | inactive
CCC1(C)CC(=O)NC1=O (stereo unspecified) | inactive
CCc1ccc(OCC(=O)Nc2ccc(-c3nc4ccccc4o3)c(O)c2)cc1 | active: 3.55 µM
CCCc1nnc(NC(=S)Nc2ccccc2)s1 | active: 2.51 µM
Cc1nonc1CN(C)C(=O)CC1C(=O)NCCN1Cc1ccccc1F (stereo unspecified) | inactive
Cc1ccc(-c2cc(C(=O)NN3CCOCC3)c3cc(Br)ccc3n2)o1 | inactive
Cc1occc1-c1nnc(SCC(=O)Nc2ccccn2)o1 | inconclusive [activator, partial curve]
COc1ccc(NC(=O)/C(Cl)=C(/Cl)S(=O)Cc2ccccc2Cl)cn1 (stereo unspecified) | inactive
CN1CCN(C(=O)c2cc(-c3ccccc3)on2)CC1 | inconclusive [activator, single point]
CCN(/C=N/c1sc2c(c1C#N)CCCCC2)CC | active: 3.16 µM
Cn1nnnc1SCc1ccc(C(=O)Nc2ccccc2F)cc1 | inconclusive [activator, partial curve]
Cc1cccc(OCCOC(=O)CN2C(=O)NC3(CCCC3)C2=O)c1 | inactive
O=C(O)C=C1CCN(c2ncc(C(F)(F)F)cc2Cl)CC1 | inconclusive [activator, partial curve]
COc1ccc(-c2cc3nc(C)cc(NCCO)n3n2)cc1 | inconclusive [activator, partial curve]
COc1ccc(C)cc1NC(=O)C(Sc1nnnn1C)c1ccccc1 (stereo unspecified) | inactive
CC(=O)NCCc1nc2ccccc2n1CCc1ccccc1 | inactive
NC(=S)c1ccc[n+]([C@@H]2O[C@@H](COP(=O)([O-])OP(=O)(O)OC[C@H]3O[C@@H](n4cnc5c(N)ncnc54)[C@H](OP(=O)(O)O)[C@@H]3O)C(O)C2O)c1 (stereo partly specified) | inactive
CC(C)c1cc2cc3ccc(=O)oc3cc2o1 | inconclusive [activator, single point]
Nn1c(SCC(=O)Nc2ccc(N3CCOCC3)cc2)nnc1-c1cccc(F)c1 | inconclusive [activator, single point]
Cc1oc(-c2ccc(-c3ccccc3)cc2)nc1CN1CCN(CC(=O)N(C)C)CC1 | inconclusive [activator, full curve]
COc1cc(/C=N/Nc2ccc(Cl)c(C(=O)O)c2)ccc1OC(=O)c1cccs1 | inconclusive [activator, partial curve]
Cc1cc(N/N=C/c2ccc([N+](=O)[O-])o2)nc2ccccc12 | inconclusive [activator, single point]
O=C(Nc1ccc2c(c1)OCO2)c1ccc(=O)[nH]n1 | inconclusive [activator, partial curve]
CC(Sc1ncnc2c1cnn2-c1ccccc1)C(=O)NCC1CCCO1 (stereo unspecified) | inactive
COc1ccc(CCNC(=O)C2CC(c3ccccc3[N+](=O)[O-])=NO2)cc1 (stereo unspecified) | inconclusive [activator, partial curve]
COc1ccc(/C=N/Nc2nccnc2Cl)cc1 | active: 0.447 µM

Compound | Potency
Cc1cc(C)n(CCN(C)C(=O)CCc2nnc(CCC3CCCCC3)o2)n1 | inconclusive [activator, single point]
CCc1nnc(NC(=O)c2ccc3ncsc3c2)s1 | inconclusive [activator, single point]
COC(=O)C1=NN(C(=O)c2cccc(Br)c2)C(O)(c2ccc(Cl)cc2)C1 (stereo unspecified) | inactive
CCc1ccccc1NC(=O)CN(C)C(=O)c1cc(C2CC2)nn1-c1ccccc1 | inactive
CCC/C(=N/NC(=O)c1ccc2c(c1)OCO2)c1cccs1 | inconclusive [activator, partial curve]
Cc1csc(SCC(=O)Nc2ccc3c(c2)OCCO3)n1 | inconclusive [activator, single point]
CSCCC(NC(=O)c1ccco1)C(=O)N1CC=C(c2ccccc2)CC1 (stereo unspecified) | inactive
NC(=O)c1c(NC(=O)c2ccccc2F)sc2c1CCCC2 | active: 0.891 µM
O=C1C(C=NCc2cccnc2)=C(O)c2ccccc21 | inconclusive [activator, single point]
COc1ccc(/C=C\C(=O)c2c(O)ccc3c(C)cc(=O)oc23)cc1OC | inconclusive [activator, single point]
Cc1ccc(-c2noc(-c3ccno3)n2)cc1 | inconclusive [activator, partial curve]
Cc1cccc(/C(N)=N/OC(=O)CCc2ccccc2)c1 | inconclusive [activator, partial curve]
COc1ccc([C@@H]2[C@@H]3C(=O)N(C(C)(C)C)C(=O)[C@@H]3[C@]3(CC(C)C)C(=O)N(c4cccc(Br)c4)C(=O)N23)cc1 | inactive
COc1ccccc1S(=O)(=O)Cc1ccc(C(=O)N2CCOCC2)o1 | inactive
CCOc1ccc(-c2cc(CCCC(=O)NCc3cccnc3)no2)cc1 | inconclusive [activator, partial curve]
O=C(NC(=S)Nc1ccc(Br)cc1)C1CCCCC1 | inconclusive [activator, single point]
NNC(=O)c1nn(-c2ccc(Cl)cc2)cc1O | inconclusive [activator, single point]
COC(=O)c1ccc(-c2nc3cc(Cl)c(N)cc3s2)cc1 | active: 0.891 µM
Cc1ccsc1/C=N/Nc1ccc(C(=O)O)cc1 | inconclusive [activator, full curve, poor fit]
COc1ccc(CN=C2NN=C(c3ccc(Cl)cc3)CS2)cc1 | active: 3.55 µM
O=C(N/N=C/C1CC=CCC1)c1cc(Br)ccc1O (stereo unspecified) | inactive
Cc1cccc(/C(N)=N/OC(=O)C23CC4CC(CC(C4)C2)C3)c1 | inconclusive [activator, single point]
O=C(c1ccc2ccccc2n1)N1CCN(c2ccccc2Cl)CC1 | inconclusive [activator, single point]
N/C(=N\OC(=O)c1ccc(Cl)cc1Cl)c1ccccc1 | active: 0.501 µM
Cc1ccccc1C(=O)c1cccn1CC(=O)NCc1ccccc1Cl | inconclusive [activator, single point]
COc1ccc(C(=O)COc2ccccc2N2C(=O)C3C4C=CC(C4)C3C2=O)cc1 (stereo unspecified) | inconclusive [activator, partial curve]

Compound | Potency
O=C(Nc1ccc(F)cc1F)c1noc2c1CCC2 | inconclusive [activator, single point]
Cc1ccccc1-n1sc2cc(F)ccc2c1=O | inactive
O=C(COc1ccc(Cl)cc1Cl)Nc1ccc(Cl)cn1 | inconclusive [activator, full curve]
O=C(Nc1ccc(NC(=O)c2cccs2)cc1)c1cccs1 | inconclusive [activator, single point]
COc1ccc(N(CC(=O)Nc2cccc(N(C)S(C)(=O)=O)c2)S(=O)(=O)c2ccccc2)cc1Cl | inactive
Cc1cnc(NC(=O)c2sc(Nc3ccccc3)nc2N)o1 | inconclusive [activator, single point]
CN(C)c1ccc(/C=C(/C#N)C(=O)NCc2ccccc2)o1 | inconclusive [activator, single point]
O=C(CSc1ncccc1C(=O)O)c1cccc(C(F)(F)F)c1 | inconclusive [activator, partial curve]
COc1ccc(S(=O)(=O)N2CCN(c3nn(C)c(=O)n(C)c3=O)CC2)cc1 | inactive
O=C(COC(=O)COc1ccccc1)Nc1ncc([N+](=O)[O-])s1 | inactive
Cc1cc(C)n(-c2nnc(N3CCN(c4ccccc4)CC3)nn2)n1 | inconclusive [activator, single point]
Fc1cc(Cl)c(OCc2noc(-c3ccsc3)n2)c(Cl)c1 | active: 3.16 µM
CSc1cccc(NC(=S)NN(C)C)c1 | inconclusive [activator, single point]
COc1ccc2c(c1)CCc1sc(NC(=O)c3ccco3)nc1-2 | inconclusive [activator, single point]
CN(Cc1cccnc1)C(=O)c1cc(COc2ccc3c(c2)CCCC3)on1 | inconclusive [activator, full curve]
NC(=O)c1ccc[n+](CC(=O)c2cccc([N+](=O)[O-])c2)c1 | inactive
CCOc1ccc(C2=Nc3ccc(Br)cc3C(c3ccc(N4CCOCC4)cc3)=NN2)cc1 | inconclusive [activator, partial curve]
CCOC(=O)c1cnc(Nc2nc3ccccc3o2)nc1C | inconclusive [activator, full curve]
CCOC(=O)c1c(C)[nH]c(C(=O)COC(=O)CNC(=O)c2ccccc2Cl)c1C | inconclusive [activator, single point]
Fc1cccc(Cl)c1Cn1nnc(-c2ccc3c(c2)OCO3)n1 | inconclusive [activator, partial curve]
O=[N+]([O-])c1cccc(-c2nc3ccc([N+](=O)[O-])cc3[nH]2)c1 | active: 3.98 µM
CCOC(=O)c1c(C)[nH]c(C(=O)OC(C)C(=O)NC2CCCCC2C)c1C (stereo unspecified) | inactive
COc1ccc(CNC(=O)CSc2n[nH]c(N)n2)cc1 | inactive
Cc1cc(C)c2c(-n3cccc3)c(C(=O)O)sc2n1 | active: 0.631 µM
